# ± gives the standard deviation of the averaged measurements. Whole data set: some 33,000 sequences, median “E-score (dimensionless, -0.5 to 0.5)” near -0.046, cut for the highest 2% near 0.36. Some of the results follow.
# Tested on: T1, SpTbr T-box DNA-binding domain (GST fusion)
# T1 sequence: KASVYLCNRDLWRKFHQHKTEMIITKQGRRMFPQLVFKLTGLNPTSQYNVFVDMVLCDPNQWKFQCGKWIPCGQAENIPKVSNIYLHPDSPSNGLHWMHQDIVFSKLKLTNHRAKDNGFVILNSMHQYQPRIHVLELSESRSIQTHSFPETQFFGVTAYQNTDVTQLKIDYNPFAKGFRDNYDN
# Test: PBM E-score of 8-mer (E-score (dimensionless, -0.5 to 0.5)); Tbr is Tbrain of the sea star Patiria miniata (Pm) or the sea urchin Strongylocentrotus purpuratus (Sp); higher = stronger binding preference; most listed sequences are background and not binding sites
# Conditions: the construct has about 5 more residues each side
# Method: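 Universal protein-binding microarray (Agilent AMADID 016060, 60-bp probes with a 35-bp variable region) incubated with 200 nM GST-fused Strongylocentrotus purpuratus Tbr T-box DNA-binding domain (residues 362-554) in PBS pH 7.5. Scored for every ungapped 8-mer (given with its reverse complement) as E-score (range -0.5 to 0.5; >0.45 counts as bound) and Z-score of median probe intensity. Two replicate arrays (datasets 1 and 2).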
# 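Also: protein at 200 nM in PBS on universal double-stranded arrays.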
row,Sequence,PBM E-score of 8-mer
1,ATCCACTA,-0.217 ± 0.065
2,AACTCAGA,-0.0806 ± 0.0027
3,AAAATGCA,-0.0594 ± 0.089
4,CCTTTCCG,-0.104 ± 0.011
5,AACGTGAT,0.0397 ± 0.054
6,CCGATTGA,-0.154 ± 0.057
7,CCATGGCG,-0.204 ± 0.015
8,AAATTTTA,-0.00539 ± 0.17
9,GCGCCACA,0.223 ± 0.014
10,AGACGCCC,-0.148 ± 0.025
11,CCAAAATC,-0.138 ± 0.03
12,ATGTGCCA,0.374 ± 0.01
13,CCTATCCC,-0.00292 ± 0.082
14,AATTACAG,-0.124 ± 0.024
15,CTTAAAGC,-0.259 ± 0.041
16,CCACTGGA,-0.234 ± 0.0092
17,ATCCTGAG,-0.171 ± 0.027
18,AGATACGG,-0.0426 ± 0.015
19,TAAAGGGA,-0.0975 ± 0.056
20,AAGTCCGA,-0.125 ± 0.033
21,GATATAGC,0.118 ± 0.023
22,CAATCGAA,-0.266 ± 0.099

row,Sequence,PBM E-score of 8-mer
1,CAAGCCCA,-0.181 ± 0.039
2,GTTTCTCA,0.186 ± 0.039
3,TAGAGGCA,-0.173 ± 0.011
4,CACCATCA,0.246 ± 0.0075
5,AAGCTGGA,-0.0414 ± 0.026
6,AACTGGTG,0.188 ± 0.02
7,ATCCAATG,-0.108 ± 0.019
8,CTCATGGA,-0.162 ± 0.0046
9,GGGATGTA,-0.0945 ± 0.017
10,AAGAGACC,-0.221 ± 0.038
11,GTATTGAC,-0.0627 ± 0.015
12,ACGACCGA,0.00979 ± 0.0015
13,GGGGAAAC,-0.22 ± 0.053
14,GACACTCC,0.316 ± 0.0096
15,CCAGGAGC,-0.129 ± 0.014
16,AAGAGCCA,-0.0986 ± 0.0073
17,GACACATC,0.363 ± 0.028
18,CCTTTTAA,0.0516 ± 0.015
19,CTGCGATA,0.0968 ± 0.04
20,CAAGCCGC,0.048 ± 0.039
21,GCTTTGTA,-0.151 ± 0.11
22,ATTGCATG,-0.233 ± 0.0087

row,Sequence,PBM E-score of 8-mer
1,CCCTGCCC,-0.128 ± 0.03
2,AGTAAATG,-0.11 ± 0.024
3,AACGATCC,-0.0179 ± 0.014
4,ACTTTGAG,0.0979 ± 0.027
5,ACGGTACA,-0.124 ± 0.018
6,AATGGTCG,-0.231 ± 0.15
7,AAGGGGGT,0.0599 ± 0.024
8,CAGTCCTC,-0.0834 ± 0.035
9,ATCCCGTC,-0.166 ± 0.0095
10,TCATGAGA,-0.163 ± 0.00029
11,CAAAGGAG,-0.279 ± 0.053
12,CATGACGA,-0.131 ± 0.022
13,GACGGCCA,-0.0774 ± 0.042
14,ATAAAGAG,-0.0829 ± 0.068
15,AAACGTGT,0.368 ± 0.018
16,CACTGATG,0.073 ± 0.046
17,GCGCCGTA,0.111 ± 0.11
18,ACTTATAA,-0.0689 ± 0.0088
19,TCTGAGAA,-0.238 ± 0.12
20,ATAAGTCA,-0.102 ± 0.017
21,CAAGCCCG,-0.195 ± 0.02
22,AGTAGCAG,-0.11 ± 0.1

row,Sequence,PBM E-score of 8-mer
1,ATCGCGAG,0.255 ± 0.0054
2,GAAGTTAC,-0.0673 ± 0.012
3,GATTGTAC,-0.0105 ± 0.043
4,CCAATACA,-0.11 ± 0.044
5,CACCATAA,0.0276 ± 0.045
6,ATCATTCG,-0.0417 ± 0.039
7,TACCAGCA,-0.0344 ± 0.084
8,GGGAGCAC,-0.139 ± 0.0078
9,AGGTGTGG,0.486 ± 0.0081
10,ACCTGTGA,0.3985 ± 0.0028
11,GTCTAGGA,-0.253 ± 0.011
12,GTATTTTA,-0.216 ± 0.071
13,AGATGGCG,0.027 ± 0.02
14,AGAGGCCA,0.0203 ± 0.091
15,GACTCCTC,0.0409 ± 0.052
16,AGTGCGAG,0.408 ± 0.022
17,TCGTCTAA,-0.0565 ± 0.057
18,CCGGGATC,-0.0846 ± 0.051
19,AGCCCGAT,-0.187 ± 0.0064
20,TGTCCCAA,-0.196 ± 0.019

# — the supplement of paper PMC4166925
